{"source": "the supplement of paper PMC4967469", "note": "pIC50: −log10 of the molar value. By IC50 is meant the dose at which the fit gives 50% viability; a fit beyond the top or the lowest dose is shown as a bound at that dose. For AUC the same curve is integrated over the 256-fold range of doses and scaled to a fraction; values near 1 show little effect. An inferred top dose was derived from the fitted curves, not read from the paper."}
{"compound": "CCn1cc(-c2ccnc3[nH]c(-c4cccc(CN(C)C)c4)cc23)c(-c2ccc(NC(=O)N(C)C)cc2)n1 [GSK1070916]", "assay": "Viability of human cancer cell lines after 72 h of drug (GDSC screen)", "details": "top dose inferred", "experimental": "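Human cancer cell lines in 384-well plates, medium with 10% serum, drug for 72 h over a 256-fold dose range (nine 2-fold or five 4-fold steps up to the top dose). Adherent lines were fixed and stained with the nucleic acid dye Syto60, suspension lines read with resazurin; signal relative to control wells, capped at 0 and 100%. One two-parameter sigmoid per drug and line, fitted in a mixed model over all curves with the slope shared within a line.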"}
{"cell line": "GI-1 (glioma, adherent, top dose 2.56 µM)", "AUC": 0.931, "pIC50": "< 5.59"}
{"cell line": "NUGC-3 (stomach, adherent, top dose 2.56 µM)", "AUC": 0.969, "pIC50": "< 5.59"}
{"cell line": "H2803 (mesothelioma, adherent, top dose 2.56 µM)", "AUC": 0.976, "pIC50": "< 5.59"}
{"cell line": "MC116 (B-cell lymphoma, suspension, top dose 2.56 µM)", "AUC": 0.999, "pIC50": "< 5.59"}
{"cell line": "NCI-H841 (small cell lung carcinoma, adherent, top dose 2.56 µM)", "AUC": 0.971, "pIC50": "< 5.59"}
{"cell line": "CP50-MEL-B (melanoma, adherent, top dose 2.56 µM)", "AUC": 0.987, "pIC50": "< 5.59"}
{"cell line": "MS751 (cervix, adherent, top dose 2.56 µM)", "AUC": 0.984, "pIC50": "< 5.59"}
{"cell line": "SW1417 (large intestine, adherent, top dose 2.56 µM)", "AUC": 0.965, "pIC50": "< 5.59"}
{"cell line": "ES6 (Ewing sarcoma, adherent, top dose 2.56 µM)", "AUC": 0.881, "pIC50": "< 5.59"}
{"cell line": "T84 (large intestine, adherent, top dose 2.56 µM)", "AUC": 0.924, "pIC50": "< 5.59"}
{"cell line": "ES-2 (ovary, adherent, top dose 2.56 µM)", "AUC": 0.989, "pIC50": "< 5.59"}
{"cell line": "RCC-JF (kidney, adherent, top dose 2.56 µM)", "AUC": 0.955, "pIC50": "< 5.59"}
{"cell line": "EN (endometrium, adherent, top dose 2.56 µM)", "AUC": 0.777, "pIC50": 5.88}
{"cell line": "MONO-MAC-6 (acute myeloid leukaemia, suspension, top dose 2.56 µM)", "AUC": 0.404, "pIC50": 7.07}
{"cell line": "T-24 (bladder, adherent, top dose 2.56 µM)", "AUC": 0.961, "pIC50": "< 5.59"}
{"cell line": "MEG-01 (chronic myeloid leukaemia, suspension, top dose 2.56 µM)", "AUC": 0.835, "pIC50": 5.81}
{"cell line": "HCC-78 (lung adenocarcinoma, adherent, top dose 2.56 µM)", "AUC": 0.86, "pIC50": "< 5.59"}
{"cell line": "MSTO-211H (mesothelioma, adherent, top dose 2.56 µM)", "AUC": 0.988, "pIC50": "< 5.59"}
{"cell line": "NCI-H2291 (lung adenocarcinoma, adherent, top dose 2.56 µM)", "AUC": 0.979, "pIC50": "< 5.59"}
{"cell line": "LoVo (large intestine, adherent, top dose 2.56 µM)", "AUC": 0.987, "pIC50": "< 5.59"}
{"cell line": "CAL-120 (breast, adherent, top dose 2.56 µM)", "AUC": 0.901, "pIC50": "< 5.59"}
{"cell line": "SW962 (urogenital system, adherent, top dose 2.56 µM)", "AUC": 0.969, "pIC50": "< 5.59"}
{"cell line": "LOXIMVI (melanoma, semi-adherent, top dose 2.56 µM)", "AUC": 0.941, "pIC50": "< 5.59"}
{"cell line": "HCT-15 (large intestine, adherent, top dose 2.56 µM)", "AUC": 0.971, "pIC50": "< 5.59"}
{"cell line": "HT-1376 (bladder, adherent, top dose 2.56 µM)", "AUC": 0.985, "pIC50": "< 5.59"}
{"cell line": "CAPAN-1 (pancreas, adherent, top dose 2.56 µM)", "AUC": 0.971, "pIC50": "< 5.59"}
{"cell line": "FADU (head and neck, adherent, top dose 2.56 µM)", "AUC": 0.977, "pIC50": "< 5.59"}
{"cell line": "KON (head and neck, adherent, top dose 2.56 µM)", "AUC": 0.986, "pIC50": "< 5.59"}
{"cell line": "MS-1 (small cell lung carcinoma, suspension, top dose 2.56 µM)", "AUC": 0.884, "pIC50": 5.65}
{"cell line": "Hs-445 (Hodgkin lymphoma, suspension, top dose 2.56 µM)", "AUC": 0.856, "pIC50": 5.74}
{"cell line": "BEN (non-small cell lung carcinoma, adherent, top dose 2.56 µM)", "AUC": 0.931, "pIC50": "< 5.59"}
{"cell line": "DAN-G (pancreas, adherent, top dose 2.56 µM)", "AUC": 0.977, "pIC50": "< 5.59"}
{"cell line": "BT-20 (breast, adherent, top dose 2.56 µM)", "AUC": 0.861, "pIC50": "< 5.59"}
{"cell line": "DMS-273 (small cell lung carcinoma, adherent, top dose 2.56 µM)", "AUC": 0.877, "pIC50": "< 5.59"}
{"cell line": "OVCA420 (ovary, adherent, top dose 2.56 µM)", "AUC": 0.98, "pIC50": "< 5.59"}
{"cell line": "NCI-H1703 (lung adenocarcinoma, adherent, top dose 2.56 µM)", "AUC": 0.897, "pIC50": "< 5.59"}
{"cell line": "EMC-BAC-1 (lung adenocarcinoma, adherent, top dose 2.56 µM)", "AUC": 0.778, "pIC50": 5.92}
{"cell line": "NB-4 (acute myeloid leukaemia, suspension, top dose 2.56 µM)", "AUC": 0.264, "pIC50": 7.40}
{"cell line": "LB2241-RCC (kidney, adherent, top dose 2.56 µM)", "AUC": 0.984, "pIC50": "< 5.59"}
{"cell line": "BB30-HNC (head and neck, adherent, top dose 2.56 µM)", "AUC": 0.916, "pIC50": "< 5.59"}
{"cell line": "NCI-H2085 (lung adenocarcinoma, adherent, top dose 2.56 µM)", "AUC": 0.934, "pIC50": "< 5.59"}
{"cell line": "UACC-893 (breast, adherent, top dose 2.56 µM)", "AUC": 0.981, "pIC50": "< 5.59"}
{"cell line": "FTC-133 (thyroid, adherent, top dose 2.56 µM)", "AUC": 0.986, "pIC50": "< 5.59"}
{"cell line": "ROS-50 (B-cell leukaemia, suspension, top dose 2.56 µM)", "AUC": 0.933, "pIC50": "< 5.59"}
{"cell line": "TE-10 (oesophagus, adherent, top dose 2.56 µM)", "AUC": 0.946, "pIC50": "< 5.59"}
{"cell line": "GT3TKB (stomach, adherent, top dose 2.56 µM)", "AUC": 0.99, "pIC50": "< 5.59"}
{"cell line": "U-698-M (B-cell leukaemia, suspension, top dose 2.56 µM)", "AUC": 0.969, "pIC50": "< 5.59"}
{"cell line": "NCI-H2009 (lung adenocarcinoma, adherent, top dose 2.56 µM)", "AUC": 0.987, "pIC50": "< 5.59"}
{"cell line": "HCC70 (breast, adherent, top dose 2.56 µM)", "AUC": 0.962, "pIC50": "< 5.59"}
{"cell line": "SNG-M (endometrium, adherent, top dose 2.56 µM)", "AUC": 0.84, "pIC50": 5.77}
{"cell line": "NCI-H211 (small cell lung carcinoma, adherent, top dose 2.56 µM)", "AUC": 0.777, "pIC50": 6.00}
{"cell line": "EM-2 (chronic myeloid leukaemia, suspension, top dose 2.56 µM)", "AUC": 0.6, "pIC50": 6.50}
{"cell line": "G-MEL (melanoma, adherent, top dose 2.56 µM)", "AUC": 0.963, "pIC50": "< 5.59"}
{"cell line": "RERF-LC-MS (lung adenocarcinoma, adherent, top dose 2.56 µM)", "AUC": 0.982, "pIC50": "< 5.59"}
{"cell line": "ALL-SIL (T-cell leukaemia, suspension, top dose 2.56 µM)", "AUC": 0.022, "pIC50": "> 8.00"}
{"cell line": "OE21 (oesophagus, adherent, top dose 2.56 µM)", "AUC": 0.976, "pIC50": "< 5.59"}
{"cell line": "LU-139 (small cell lung carcinoma, suspension, top dose 2.56 µM)", "AUC": 0.864, "pIC50": "< 5.59"}
{"cell line": "JHH-2 (liver, adherent, top dose 2.56 µM)", "AUC": 0.96, "pIC50": "< 5.59"}
{"cell line": "NCI-H446 (small cell lung carcinoma, semi-adherent, top dose 2.56 µM)", "AUC": 0.601, "pIC50": 6.51}
{"cell line": "NCI-H1581 (large cell lung carcinoma, semi-adherent, top dose 2.56 µM)", "AUC": 0.763, "pIC50": 6.07}
{"cell line": "NCI-H2122 (lung adenocarcinoma, adherent, top dose 2.56 µM)", "AUC": 0.977, "pIC50": "< 5.59"}
{"cell line": "SUP-B15 (lymphoblastic leukaemia, suspension, top dose 2.56 µM)", "AUC": 0.178, "pIC50": 7.74}
{"cell line": "NCI-H1651 (lung adenocarcinoma, adherent, top dose 2.56 µM)", "AUC": 0.987, "pIC50": "< 5.59"}
{"cell line": "SCC-25 (head and neck, adherent, top dose 2.56 µM)", "AUC": 0.881, "pIC50": "< 5.59"}
{"cell line": "EGI-1 (biliary tract, adherent, top dose 2.56 µM)", "AUC": 0.96, "pIC50": "< 5.59"}
{"cell line": "ACHN (kidney, adherent, top dose 2.56 µM)", "AUC": 0.951, "pIC50": "< 5.59"}
{"cell line": "KARPAS-620 (haematopoietic neoplasm, suspension, top dose 2.56 µM)", "AUC": 0.46, "pIC50": 6.90}
{"cell line": "SAT (head and neck, adherent, top dose 2.56 µM)", "AUC": 0.918, "pIC50": "< 5.59"}
{"cell line": "RPMI-7951 (melanoma, adherent, top dose 2.56 µM)", "AUC": 0.925, "pIC50": "< 5.59"}
{"cell line": "HCC1500 (breast, adherent, top dose 10.24 µM)", "AUC": 0.947, "pIC50": "< 4.99"}
{"cell line": "SK-MES-1 (lung squamous cell carcinoma, adherent, top dose 2.56 µM)", "AUC": 0.953, "pIC50": "< 5.59"}
{"cell line": "D-283MED (medulloblastoma, adherent, top dose 2.56 µM)", "AUC": 0.989, "pIC50": "< 5.59"}
{"cell line": "NTERA-2 cl.D1 (testis, adherent, top dose 2.56 µM)", "AUC": 0.97, "pIC50": "< 5.59"}
{"cell line": "SK-N-FI (neuroblastoma, adherent, top dose 2.56 µM)", "AUC": 0.803, "pIC50": 5.90}
{"cell line": "CMK (acute myeloid leukaemia, suspension, top dose 2.56 µM)", "AUC": 0.656, "pIC50": 6.40}
{"cell line": "Becker (glioma, adherent, top dose 2.56 µM)", "AUC": 0.974, "pIC50": "< 5.59"}
{"cell line": "NCI-H510A (small cell lung carcinoma, semi-adherent, top dose 2.56 µM)", "AUC": 0.874, "pIC50": 5.67}
